Measurements: the supplement of paper PMC7826260
Some of the results follow. Viral Rep nickase domains cut single-stranded DNA in vitro for 1 h at 37 °C with 3 µM enzyme; only the middle of the 90-letter strands is printed. Numbers give uncut DNA relative to the enzyme-free pool, as log2; strong cutting gives strongly negative numbers. There is no active / inactive call. The scaling is to total reads; where an enzyme cuts many sequences, the uncut ones exceed 0.

How the values were obtained:
Test in all cases: uncleaved DNA left, log2 of reads against the no-enzyme library (log2 ratio); higher = less cleavage (more negative = more Rep cleavage of the k-mer); sequences stand for … in CTCGTCCG…ACCGGAGA
[1] = test system: T1, Rep nickase domain of Muscovy duck circovirus
T1 sequence (residues 1-111, tag not shown): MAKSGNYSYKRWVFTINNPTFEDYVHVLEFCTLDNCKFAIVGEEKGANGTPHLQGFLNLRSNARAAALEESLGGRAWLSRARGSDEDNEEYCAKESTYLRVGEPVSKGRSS
Experimental: (§1)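 A pool of 90-nt single-stranded DNAs with seven random bases just before the constant AC of the nick site (name = the seven bases) was cut by 3 µM recombinant His6-SUMO-tagged Rep nickase domain (300 nM DNA, 50 mM HEPES pH 8.0, 50 mM NaCl, 1 mM MnCl2, 1 h, 37 °C, three replicates). Uncut DNA was amplified and sequenced.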

[2] = test system: T2, Rep nickase domain of banana bunchy top virus
T2 sequence (residues 1-94, tag not shown): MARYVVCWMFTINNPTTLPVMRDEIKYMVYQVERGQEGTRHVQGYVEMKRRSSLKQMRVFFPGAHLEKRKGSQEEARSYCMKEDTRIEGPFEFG
Experimental: as §1

[3] = test system: T3, Rep nickase domain of cabbage leaf curl virus
T3 sequence (residues 1-116, tag not shown): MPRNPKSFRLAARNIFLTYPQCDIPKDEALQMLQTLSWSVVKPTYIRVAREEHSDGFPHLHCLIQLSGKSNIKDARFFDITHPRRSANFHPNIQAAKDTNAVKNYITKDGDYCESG
Experimental: as §1

[4] = test system: T4, Rep nickase domain of chickpea chlorotic dwarf virus
T4 sequence (residues 1-124, tag not shown): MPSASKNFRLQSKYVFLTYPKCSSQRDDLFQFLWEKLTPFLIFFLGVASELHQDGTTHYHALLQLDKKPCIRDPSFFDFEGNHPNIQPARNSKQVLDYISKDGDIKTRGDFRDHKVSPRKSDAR
Experimental: as §1

[5] = test system: T5, Rep nickase domain of faba bean necrotic yellows virus
T5 sequence (residues 1-98, tag not shown): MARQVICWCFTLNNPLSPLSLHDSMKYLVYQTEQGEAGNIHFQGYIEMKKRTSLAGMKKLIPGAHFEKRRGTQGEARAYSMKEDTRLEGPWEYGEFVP
Experimental: as §1

[6] = test system: T6, Rep nickase domain of maize striate mosaic virus
T6 sequence (residues 1-117, tag not shown): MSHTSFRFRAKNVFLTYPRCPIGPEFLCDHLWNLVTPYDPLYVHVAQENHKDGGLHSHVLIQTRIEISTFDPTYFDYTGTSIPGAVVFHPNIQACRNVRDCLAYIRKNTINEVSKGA
Experimental: as §1

[7] = test system: T7, Rep nickase domain of porcine circovirus 2
T7 sequence (residues 2-116, tag not shown): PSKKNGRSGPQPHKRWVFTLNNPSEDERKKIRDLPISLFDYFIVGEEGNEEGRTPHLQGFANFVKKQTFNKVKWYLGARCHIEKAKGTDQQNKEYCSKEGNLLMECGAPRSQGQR
Experimental: as §1

[8] = test system: T8, Rep nickase domain of tomato golden mosaic virus
T8 sequence (residues 1-124, tag not shown): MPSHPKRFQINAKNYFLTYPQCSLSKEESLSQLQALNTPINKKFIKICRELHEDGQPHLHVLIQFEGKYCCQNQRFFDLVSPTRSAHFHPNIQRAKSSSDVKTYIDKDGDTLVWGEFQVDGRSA
Experimental: as §1

[9] = test system: T9, Rep nickase domain of tomato yellow leaf curl virus
T9 sequence (residues 1-136, tag not shown): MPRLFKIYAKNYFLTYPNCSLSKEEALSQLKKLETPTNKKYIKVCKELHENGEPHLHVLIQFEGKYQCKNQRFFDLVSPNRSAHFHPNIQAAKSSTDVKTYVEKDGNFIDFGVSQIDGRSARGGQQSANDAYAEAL
Experimental: as §1

[10] = test system: T10, Rep nickase domain of wheat dwarf virus
T10 sequence (residues 1-137, tag not shown): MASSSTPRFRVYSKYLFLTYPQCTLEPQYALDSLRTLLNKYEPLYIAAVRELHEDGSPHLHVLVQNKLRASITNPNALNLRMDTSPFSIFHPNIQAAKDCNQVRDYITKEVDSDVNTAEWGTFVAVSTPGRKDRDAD
Experimental: as §1

Sequence | uncleaved DNA left (log2) [1] | uncleaved DNA left (log2) [2] | uncleaved DNA left (log2) [3] | uncleaved DNA left (log2) [4] | uncleaved DNA left (log2) [5] | uncleaved DNA left (log2) [6] | uncleaved DNA left (log2) [7] | uncleaved DNA left (log2) [8] | uncleaved DNA left (log2) [9] | uncleaved DNA left (log2) [10]
TACACCC | 0.0121 | -0.0895 | -0.00665 | -1.33 | 0.103 | -0.122 | -0.197 | -0.0611 | -0.053 | 0.0403
CGTCCGC | 0.0312 | 0.0531 | 0.0257 | 0.233 | 0.0575 | 0.239 | 0.0206 | -0.0288 | 0.185 | 0.028
TAGGATC | 0.236 | 0.113 | 0.404 | 1.25 | 0.164 | 1.43 | 0.189 | 0.141 | 0.0975 | 0.129
ATTCGGA | 0.0422 | -0.126 | 0.117 | 0.275 | 0.0557 | -0.112 | 0.103 | 0.0201 | -0.105 | 0.0197
TAGATTC | 0.131 | 0.0875 | -0.0162 | -0.568 | -0.0191 | -0.531 | -0.518 | -0.00819 | 0.0449 | 0.0612
TAAGCCC | 0.0354 | 0.0618 | -0.824 | -2.1 | 0.0416 | -0.48 | 0.131 | -0.0332 | 0.02 | -0.341
AGAGCTC | 0.0842 | 0.0429 | 0.255 | 0.455 | 0.0607 | 0.582 | -0.0923 | 0.0564 | 0.00902 | 0.0264
TTACATC | -0.0567 | -0.0487 | -0.0239 | -1.53 | -0.0445 | -0.548 | -0.0344 | -0.169 | -0.0704 | -0.0272
CCTGGTG | 0.0945 | -0.0413 | -0.411 | -0.551 | -0.00631 | -0.896 | 0.239 | 0.0502 | 0.216 | 0.0171
CCGGCCG | -0.0503 | -0.079 | -0.692 | -0.194 | -0.121 | -0.801 | 0.106 | -0.0434 | -0.0792 | -0.233
TAGGGCG | 0.0362 | 0.0598 | -0.86 | -0.218 | 0.0766 | -0.913 | 0.166 | 0.0648 | 0.0286 | -0.0999
GTTCACA | 0.0318 | 0.155 | 0.353 | 0.898 | -0.115 | 1.75 | 0.122 | 0.0421 | 0.045 | 0.0792
TTTACAT | 0.131 | 0.134 | 0.437 | -0.745 | 0.0947 | 0.891 | 0.00791 | 0.0617 | 0.22 | 0.161
ATATTAA | 0.0439 | 0.0886 | -0.0359 | -0.339 | 0.0993 | -0.754 | 0.114 | 0.142 | 0.0316 | 0.0905
TTAGATA | 0.123 | 0.0125 | 0.203 | -0.959 | 0.0175 | 0.163 | 0.0807 | 0.0589 | 0.019 | 0.0173
TATCGAA | -0.108 | -0.0853 | -0.0178 | -0.67 | -0.142 | -0.895 | -0.152 | 0.0557 | -0.0382 | -0.106
CACAGTC | 0.0468 | -0.0287 | -0.262 | -0.593 | -0.0029 | -1 | 0.00733 | -0.0538 | -0.0216 | -0.0972
GGAATAG | 0.0988 | 0.045 | 0.124 | 0.71 | 0.0291 | -0.0657 | 0.26 | 0.0524 | 0.093 | 0.181
TAGCCTT | 0.0339 | -0.238 | -0.933 | -2.85 | -0.0584 | 0.0463 | -3.23 | -0.282 | 0.0399 | -0.114
TAAAGTG | 0.028 | -0.0688 | -1.25 | -2.23 | -0.0105 | -1.09 | 0.139 | -0.0443 | 0.0138 | -0.124
CACCTGG | -0.138 | -0.0258 | -0.243 | -0.0759 | -0.0498 | -0.743 | 0.0188 | 0.0253 | 0.00431 | 0.02
ACGATGT | 0.107 | 0.0645 | -0.145 | -0.0736 | 0.0171 | -0.383 | 0.15 | 0.139 | 0.0627 | -0.0199
GTTCCTG | -0.00604 | 0.0606 | 0.173 | 0.46 | -0.0521 | 0.888 | -0.141 | 0.00935 | 0.0471 | 0.0299
GAGCAGC | 0.133 | 0.0526 | 0.241 | 0.833 | 0.0487 | 0.429 | 0.295 | 0.0488 | 0.00628 | 0.088
TACTACT | -3.82 | -3.8 | -3.96 | -3.88 | -2.01 | -1.69 | -4.22 | -2.98 | -0.0407 | -2.26
AGTTTAT | -0.37 | -0.113 | 0.157 | -0.351 | -0.0677 | -0.0361 | -3.54 | -0.0947 | -0.0473 | -0.0205
AGGAGTA | 0.0803 | -0.072 | 0.172 | 0.296 | 0.0537 | 0.795 | 0.0579 | 0.0285 | -0.0529 | -0.0278
ATTTAGA | 0.152 | 0.0559 | -0.107 | -0.129 | 0.0641 | -0.884 | 0.089 | 0.127 | 0.109 | 0.0656
CATCACG | -0.0465 | 0.00166 | -0.921 | -0.107 | -0.0673 | -1.11 | 0.117 | -0.0847 | -0.0622 | -0.074
GCTGTTG | 0.0538 | -0.15 | -0.258 | -0.114 | 0.00141 | -0.851 | 0.13 | 0.0788 | -0.0594 | -0.131
